Measurements as given in article PMC8730729.
These are yes or no findings as the source states them, for the method shown. Binding seen in cells or lysates may run through a third protein. Some binding calls cover weakened binding; strength is not graded here. For some of these results: Where a sequence is shown, tags or fusion partners need not be part of it.

Protein sequences, listed by entry. Tags and fused reporters are not part of them.
UniProt P61026: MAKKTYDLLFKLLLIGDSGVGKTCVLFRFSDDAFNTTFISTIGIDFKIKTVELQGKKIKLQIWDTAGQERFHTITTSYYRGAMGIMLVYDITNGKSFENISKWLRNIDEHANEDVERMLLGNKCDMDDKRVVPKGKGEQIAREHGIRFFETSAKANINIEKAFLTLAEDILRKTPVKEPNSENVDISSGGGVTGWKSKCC
UniProt Q9NP72: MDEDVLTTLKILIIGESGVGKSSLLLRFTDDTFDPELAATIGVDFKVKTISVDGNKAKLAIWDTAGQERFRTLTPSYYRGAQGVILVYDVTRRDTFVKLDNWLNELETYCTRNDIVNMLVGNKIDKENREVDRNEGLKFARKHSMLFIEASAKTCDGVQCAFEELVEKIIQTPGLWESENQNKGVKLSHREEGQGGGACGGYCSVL
UniProt P62820: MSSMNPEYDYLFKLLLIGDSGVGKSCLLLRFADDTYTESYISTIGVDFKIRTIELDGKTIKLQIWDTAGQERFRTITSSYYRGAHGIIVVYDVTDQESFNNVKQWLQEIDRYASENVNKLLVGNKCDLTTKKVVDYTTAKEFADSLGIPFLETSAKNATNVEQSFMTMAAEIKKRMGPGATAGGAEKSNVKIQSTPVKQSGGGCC
UniProt P20340: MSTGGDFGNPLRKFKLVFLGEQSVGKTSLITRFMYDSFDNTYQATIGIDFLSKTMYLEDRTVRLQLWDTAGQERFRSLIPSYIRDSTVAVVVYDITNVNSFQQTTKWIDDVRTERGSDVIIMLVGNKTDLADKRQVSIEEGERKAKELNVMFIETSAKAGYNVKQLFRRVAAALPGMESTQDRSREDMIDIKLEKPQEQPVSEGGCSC

Assays:
[1] = target: T1, HaloTag-Hook3-3xFLAG (human) (UniProt Q86VS8); assay: co-IP; FLAG affinity resin IP of HaloTag-Hook-3xFLAG baits from transiently transfected 293T cells; immunoblots with anti-FHIP1B, anti-FHIP2A, anti-FHIP2B; sfGFP-3xFLAG as control
T1 sequence: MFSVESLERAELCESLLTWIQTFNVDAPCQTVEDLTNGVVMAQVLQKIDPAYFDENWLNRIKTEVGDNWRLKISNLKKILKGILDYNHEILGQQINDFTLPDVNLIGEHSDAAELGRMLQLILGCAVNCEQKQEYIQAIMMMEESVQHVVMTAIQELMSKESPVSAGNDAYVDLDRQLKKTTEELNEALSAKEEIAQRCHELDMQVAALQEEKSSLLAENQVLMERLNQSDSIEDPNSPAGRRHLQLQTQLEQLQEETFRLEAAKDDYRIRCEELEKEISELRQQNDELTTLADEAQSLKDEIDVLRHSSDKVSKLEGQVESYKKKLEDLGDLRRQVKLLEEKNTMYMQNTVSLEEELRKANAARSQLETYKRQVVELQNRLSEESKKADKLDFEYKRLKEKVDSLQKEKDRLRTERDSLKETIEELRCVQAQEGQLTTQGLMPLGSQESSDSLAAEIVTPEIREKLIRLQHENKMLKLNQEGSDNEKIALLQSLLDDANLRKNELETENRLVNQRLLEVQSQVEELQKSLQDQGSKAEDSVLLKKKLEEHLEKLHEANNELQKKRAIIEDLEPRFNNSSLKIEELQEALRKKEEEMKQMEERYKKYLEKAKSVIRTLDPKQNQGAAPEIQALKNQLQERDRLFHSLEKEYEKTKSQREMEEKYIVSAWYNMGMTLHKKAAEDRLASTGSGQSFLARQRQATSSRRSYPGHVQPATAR

[2] = target: EGFP-Rab10 (human) (UniProt P61026); assay: co-IP; GFP nanobody affinity resin IP of EGFP-Rab baits from transiently transfected 293T cells in the presence of GTPγS (2 mM in the lysis buffer); immunoblots with anti-FHIP1B or anti-FHIP2A; 3xHA-sfGFP as control
[3] = target: EGFP-Rab18 (human) (UniProt Q9NP72); assay: as above
[4] = target: EGFP-Rab1A (human) (UniProt P62820); assay: as above
[5] = target: T2, EGFP-Rab3A (human) (UniProt P20336); assay: as above
T2 sequence: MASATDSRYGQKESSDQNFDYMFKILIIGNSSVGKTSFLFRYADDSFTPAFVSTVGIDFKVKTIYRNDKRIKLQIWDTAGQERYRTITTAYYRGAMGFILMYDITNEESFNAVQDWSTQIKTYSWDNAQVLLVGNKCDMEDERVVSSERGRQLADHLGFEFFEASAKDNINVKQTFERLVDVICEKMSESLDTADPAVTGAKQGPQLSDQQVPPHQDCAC

[6] = target: EGFP-Rab6A (human) (UniProt P20340); assay: as above
[7] = target: T3, GFP-Rab5B (human) (UniProt P61020); assay: as above
T3 sequence: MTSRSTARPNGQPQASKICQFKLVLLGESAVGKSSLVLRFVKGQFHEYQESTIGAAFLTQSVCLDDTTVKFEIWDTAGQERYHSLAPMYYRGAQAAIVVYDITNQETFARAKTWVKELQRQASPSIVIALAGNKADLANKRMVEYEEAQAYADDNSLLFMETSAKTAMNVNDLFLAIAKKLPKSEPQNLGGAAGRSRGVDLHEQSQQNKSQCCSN

binding [1]: binds | binding [2]: no binding | binding [3]: no binding | binding [4]: no binding | binding [5]: no binding | binding [6]: no binding | binding [7]: binds
B1: FHIP1B, endogenous in 293T cells (protein, UniProt Q8N612 1-972)
chain: MERMNWLSRLASRGPGHRIPQGANLQTPVMADPETCLMVFKNHWSQVVRILERQGPRAAPGGADDLSAVRNHTYQMLTLLAEDRAVPSAPTGPGPLLEFALHEDLLTRVLTWQLQWDELGDGVEERRAEQLKLFEMLVSEARQPLLRHGPVREALLTLLDACGRPVPSSPALDEGLVLLLSQLCVCVAQEPSLLEFFLQPPPEPGAAPRLLLFSRLVPFVHREGTLGQQARDALLLLMALSAGSPTVGRYIADHSYFCPVLATGLSALYSSLPRKIEVPGDDWHCLRREDWLGVPALALFMSSLEFCNAVIQVAHPLVQKQLVDYIHNGFLVPVMGPALHKTSVEEMIASTAYLELFLRSISEPALLRTFLRFLLLHRHDTHTILDTLVARIGSNSRLCMVSLSLFRTLLNLSCEDVLLQLVLRYLVPCNHVMLSQKPAVRDVDLYGRAADKFLSLIPRCCRHHAPSPPRPEHASWARGPGSPSVDSSSVTTVPRPSTPSRLALFLRQQSLGGSESPGPAPCSPGLSASPASSPGRRPTPAEEPGELEDNYLEYLREARRGVDRCVRACRTWSAPYDGERPSPEPSPFGSRTKKRSLLPEEDRNNVGEGEEEELGRRGRAGGAGEGPGHLPPPQLNGVPGSWPEGAKKVRLVPKEGAGELLEGISEGMAGLEGFGQELRELEVALSNGGTGSESPLEPPLPLEEEEAYESFTCPPEPPGPFLSSPLRTLNQLPSQPFTGPFMAVLFAKLENMLQNSVYVNFLLTGLVAQLACHPQPLLRSFLLNTNMVFQPSVKSLLQVLGSVKNKIENFAASQEDFPALLSKAKKYLIARGKLDWAEGPAAGPAPRRSDPLVKSRRPSLGELLLRHAHSPTRARQAAQLVLQPGRDGAGLGLSGGSPGASTPVLLTRGGAPERQGEALRVKNAVYCAVIFPEFLKELAAISQAHAVTSPFLLETSEEGSGPLISGCGPLNP
